Source: PubChem BioAssay AID2147 (National Center for Advancing Translational Sciences (NCATS), 2009)
Hit rate of the full screen: of about 230,000 compounds, about 3,600 (1.6%) were called active. Inconclusive results, whose numbers are uncertain, are shown with a selection of clear calls. Calls come from the whole dose curve; as a rule, active = well fitted inhibition curve with a large enough effect (not every such curve was filed as active); inconclusive = small, poorly fitted or top-dose-only effect, or another doubt; inactive = no such curve, though single readings can be large or run the other way. Where the call is inconclusive, the potency comes from a doubtful curve fit.
Note: nearly all actives have a fitted effect of over 50% in size.
Potency is the fitted concentration of half-maximal effect; tags give direction and shape of the fitted curve.
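Throughout, for activity change, negative = inhibition: 0% = wells with enzyme and -100% = buffer wells without enzyme.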

Each compound was assayed against Lysine-specific demethylase 4E (Homo sapiens) (UniProt B2RXH2) (assay: qHTS Assay for Inhibitors of Human Jumonji Domain Containing 2E (JMJD2E)). Conditions: JMJD2E catalytic domain, FDH-coupled NADH fluorescence (FDH is formaldehyde dehydrogenase); series mostly up to 57.1 µM; activity change, negative = inhibition: at the top concentration.
Sequence of UniProt B2RXH2 (B2RXH2 whole entry, looked up, the tested form may be a part): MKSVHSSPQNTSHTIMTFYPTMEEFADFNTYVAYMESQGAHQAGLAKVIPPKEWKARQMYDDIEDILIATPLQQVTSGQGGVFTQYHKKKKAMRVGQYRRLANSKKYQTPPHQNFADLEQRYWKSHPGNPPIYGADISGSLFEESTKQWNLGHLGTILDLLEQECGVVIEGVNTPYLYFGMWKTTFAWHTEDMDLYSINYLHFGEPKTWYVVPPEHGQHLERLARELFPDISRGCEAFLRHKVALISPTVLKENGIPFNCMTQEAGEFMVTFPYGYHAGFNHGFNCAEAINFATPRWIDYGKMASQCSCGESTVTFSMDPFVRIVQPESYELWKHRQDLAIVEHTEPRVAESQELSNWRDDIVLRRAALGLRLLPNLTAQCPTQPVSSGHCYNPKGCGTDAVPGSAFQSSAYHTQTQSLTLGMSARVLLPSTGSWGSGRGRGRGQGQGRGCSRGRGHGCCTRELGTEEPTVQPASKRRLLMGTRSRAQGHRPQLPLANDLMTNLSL
In the case of `CC1(C)CC(=O)C2=C(C1)OC(N)=C(C#N)C21CCN(Cc2ccccc2)CC1`, the Potency is reported as inconclusive: 39.8 µM [inhibitor, single point]. With `CC(=O)N1CCN(Cc2ccc(Br)s2)CC1` the “activity change, negative = inhibition” value was inactive: 0.766%. `Nc1nonc1-n1nnc(C(=O)N/N=C/c2ccc(Br)cc2)c1CSC1=NCCS1` was tested, and the “activity change, negative = inhibition” value was inactive: -10%. With `Cc1noc(/C=C/N(C)C)c1S(=O)(=O)N1CCc2ccccc21` the “activity change, negative = inhibition” value was inactive: -3.88%. With `CC1(C)Cc2c(sc3nc(SCC(=O)N4CCOCC4)nc(N)c23)CO1` the Potency was inconclusive: 39.8 µM [inhibitor, single point]. For `COC(=O)N[C@@H](c1cccc(F)c1)[C@@H](C)[N+](=O)[O-]`, the “activity change, negative = inhibition” value was inactive: 0.576%. In the case of `c1ccc2c(c1)CCc1c-2nc2ccccc2c1N1CCOCC1`, the Potency is reported as inconclusive: 39.8 µM [inhibitor, single point]. With `CN(C)CC(C)(C)CNC(=S)NCc1ccc2c(c1)OCO2` the Potency was inconclusive: 25.1 µM [inhibitor, single point]. For `O=C(CCCOc1ccc(Cl)cc1Cl)Nc1ccccn1`, the “activity change, negative = inhibition” value was inactive: -8.35%. For `O=C(O)CCCN1C(=O)/C(=C\c2ccc(-c3nc4ccccc4s3)o2)SC1=S`, the Potency was inconclusive: 25.1 µM [inhibitor, single point]. With `CSc1nc(SCCN(C)C)c2c3c(sc2n1)COC(C)(C)C3` the Potency was inconclusive: 39.8 µM [inhibitor, single point]. `CSc1nnc(-c2cccs2)n1C` was tested, and the Potency was inconclusive: 28.2 µM [inhibitor, partial curve]. For `Cc1cc(C(=O)OCC(=O)N2CCCC2)c2ccccc2n1`, the Potency was inconclusive: 39.8 µM [inhibitor, single point]. In the case of `COc1cccc(/C=N/n2c(N)nc3ccccc32)c1OC`, the Potency is reported as inconclusive: 31.6 µM [inhibitor, partial curve]. `CCOc1cc(C)c(Cl)cc1S(=O)(=O)N1CCCC1` was tested, and the “activity change, negative = inhibition” value was inactive: 3.97%. `CCn1c(S(=O)(=O)O)nc2ccccc21` was tested, and the “activity change, negative = inhibition” value was inactive: -0.767%. With `Cc1ccc(S(=O)(=O)N2CCCC(C(=O)N(Cc3cccs3)C3CC3)C2)cc1` (stereo not given) the “activity change, negative = inhibition” value was inactive: -5.96%. In the case of `Cc1cc(C)cc(N2C(=O)CC(Cn3nc(C)cc3C)C2=O)c1` (stereo not given), the “activity change, negative = inhibition” value is reported as inactive: 3.36%. `CC(Sc1nc(-c2ccccc2)cc(C(F)(F)F)n1)C(=O)NCc1ccco1` (stereo not given) was tested, and the “activity change, negative = inhibition” value was inactive: -1.98%. `O=C(CSc1nc2ccccc2c(=O)n1-c1ccccc1)NCc1ccco1` was tested, and the “activity change, negative = inhibition” value was inactive: -2.87%. In the case of `Cc1ccc(/C=N/NC(=O)CCSc2ccccc2)cc1`, the “activity change, negative = inhibition” value is reported as inactive: 4.04%. `COc1ccc(CN(Cc2cccn2C)C(=O)c2cc3cc(OC)ccc3[nH]2)cc1` was tested, and the Potency was inconclusive: 31.6 µM [inhibitor, partial curve]. In the case of `CCCCOC(=O)Nc1sc2c(c1C(=O)OC)CCC2`, the “activity change, negative = inhibition” value is reported as inactive: 1.81%. In the case of `Cc1cc(C)c2c(N)c(C(=O)c3ccccc3)sc2n1`, the “activity change, negative = inhibition” value is reported as inactive: 89.6%. In the case of `CC(C)CCNC(=O)C(c1ccco1)N(Cc1ccccc1)C(=O)c1snc(C(N)=O)c1N` (stereo not given), the Potency is reported as inconclusive: 35.5 µM [inhibitor, single point]. For `CC1CCC(C(C)C)C(OCC(O)CN2CCCC(C)C2)C1` (stereo not given), the “activity change, negative = inhibition” value was inactive: -7.46%. In the case of `CC(=O)Nc1ccc(S(=O)(=O)Nc2nccc(/C=C/c3ccc(Cl)cc3)n2)cc1`, the “activity change, negative = inhibition” value is reported as inactive: -1.24%. `O=C(Nc1ccc(Oc2cccc(C(F)(F)F)c2)nc1)c1ccco1` was tested, and the Potency was inconclusive: 39.8 µM [inhibitor, single point]. `CC1CCCCC1NS(=O)(=O)c1ccc(S(=O)(=O)NCc2ccncc2)cc1` (stereo not given) was tested, and the “activity change, negative = inhibition” value was inactive: 3.74%. `O=C(Cn1ncc2c3ccccc3n(Cc3ccccc3)c2c1=O)NCc1ccco1` was tested, and the Potency was inconclusive: 25.1 µM [inhibitor, partial curve]. For `Cc1cc(N2CCOCC2)nc2ccc(NC(=O)CCC(=O)N3CCCC(C)C3)cc12` (stereo not given), the Potency was inconclusive: 25.1 µM [inhibitor, partial curve]. In the case of `CC(C)(C)c1cc(CN(CCO)CCO)cc(C(C)(C)C)c1O`, the Potency is reported as inconclusive: 28.2 µM [inhibitor, single point]. With `Cc1ccc(S(=O)(=O)NN2C(=O)c3ccccc3NC2C)cc1` (stereo not given) the Potency was inconclusive: 31.6 µM [inhibitor, partial curve]. With `COc1cc(CCC(=O)Nc2cccc(S(=O)(=O)N(C)C)c2)cc(OC)c1OC` the “activity change, negative = inhibition” value was inactive: 1.21%. For `Cc1cc(NCc2ccco2)n2c(nc3ccccc32)c1C#N`, the Potency was inconclusive: 28.2 µM [inhibitor, partial curve]. For `Cc1cc(NC(=S)NC(=O)c2ccco2)c2ccccc2n1`, the “activity change, negative = inhibition” value was inactive: -2.09%. For `CN1CCN(c2ncnc3ccc(-c4ccccc4C#N)cc23)CC1`, the Potency was inconclusive: 39.8 µM [inhibitor, single point]. For `COCCCNC(=O)C(C#N)c1nc2ccccc2nc1N1CCCC1` (stereo not given), the Potency was inconclusive: 28.2 µM [inhibitor, partial curve]. `CC(C)(C)c1[nH]nc2c1C(c1cccnc1)C(C#N)=C(N)O2` (stereo not given) was tested, and the “activity change, negative = inhibition” value was inactive: 6.66%. In the case of `Cc1nc2c3cnn(-c4ccccc4)c3ncn2n1`, the Potency is reported as inconclusive: 28.2 µM [inhibitor, single point]. For `CN(C)c1ccc(C(CNC(=O)c2ccccc2F)c2c[nH]c3ccccc23)cc1` (stereo not given), the “activity change, negative = inhibition” value was inactive: -5.12%. In the case of `O=C(c1ccccc1)C(Sc1ncn[nH]1)c1ccccc1` (stereo not given), the Potency is reported as inconclusive: 28.2 µM [inhibitor, single point]. With `CCN1CCN(C(=O)C(C)Nc2cc(Cl)c(OC)cc2OC)CC1` (stereo not given) the Potency was inconclusive: 3.16 µM [inhibitor, full curve]. In the case of `CCCCCOC(=O)Cc1c(O)c2ccccc2[nH]c1=O`, the Potency is reported as inconclusive: 31.6 µM [inhibitor, partial curve]. For `COc1ccccc1CNC(=O)CNCC1CCCO1` (stereo not given), the Potency was inconclusive: 39.8 µM [inhibitor, single point]. With `Cc1ccc(C(=O)Nc2ccccc2C(=O)NCc2ccco2)cc1S(=O)(=O)N1CCCCC1` the Potency was inconclusive: 28.2 µM [inhibitor, partial curve]. `COCCn1c(SCC(=O)Nc2sc(C)c(C)c2C#N)nnc1-c1ccc(OC)cc1` was tested, and the “activity change, negative = inhibition” value was inactive: -1.46%. In the case of `COC(=O)/C=C1/S/C(=N/NC(=O)c2ccc(Cl)cc2Cl)NC1=O`, the Potency is reported as inconclusive: 39.8 µM [inhibitor, single point]. For `O=C1C[C@H](c2ccccc2)Oc2cc(O)cc(O)c21`, the “activity change, negative = inhibition” value was inactive: 1.93%. `CC(=O)N1CCc2cc(C(=O)CN3CCN(c4ccccc4F)CC3)ccc21` was tested, and the Potency was inconclusive: 12.6 µM [inhibitor, partial curve]. For `COc1cccc(CN2CCC(N(CCc3ccccc3)Cc3ccccc3)CC2)c1OC`, the Potency was inconclusive: 25.1 µM [inhibitor, single point]. With `CCOC(=O)c1ccc2[nH]c(C)c(CCC(C)=O)c(=O)c2c1` the Potency was inconclusive: 3.55 µM [inhibitor, full curve]. `O=C(NC1(C(F)(F)F)N=C2SCCN2C1=O)c1ccccc1` (stereo not given) was tested, and the “activity change, negative = inhibition” value was inactive: -2.04%. In the case of `Cc1nc(SCc2ccccc2F)c2oc3ccccc3c2n1`, the “activity change, negative = inhibition” value is reported as inactive: 4.11%. With `Cc1cc(NC(=O)CSc2ccc3nnc(-c4ccc(Cl)cc4)n3n2)no1` the Potency was inconclusive: 28.2 µM [inhibitor, single point]. `COC(=O)[C@@H]1C[C@@]2(O)[C@@H](O)[C@@H](O)[C@@H](O)C[C@H]2N1Cc1ccc(C(C)(C)C)cc1` was tested, and the Potency was inconclusive: 39.8 µM [inhibitor, single point]. For `CCOC(=O)N1CCN(C(=S)NC(=O)c2ccc(F)cc2)CC1`, the “activity change, negative = inhibition” value was inactive: -0.403%. With `O=Cc1ccccc1OCc1nnsc1Cl` the Potency was inconclusive: 10 µM [inhibitor, partial curve]. `Cn1c(O)c(C=NC(CC(N)=O)C(=O)O)c(=O)n(C)c1=O` (stereo not given) was tested, and the “activity change, negative = inhibition” value was inactive: -0.0005%. In the case of `O=C(Oc1ccc2ccccc2c1Cl)N1CCCCCC1`, the “activity change, negative = inhibition” value is reported as inactive: 4.79%. With `Cc1ccc(-c2[nH]c3cc(C(N)=O)ccc3c(=O)c2O)cc1` the Potency was inconclusive: 31.6 µM [inhibitor, single point]. `COc1ccc(NC(=O)Nc2nnc(-c3ccncc3)s2)cc1` was tested, and the Potency was inconclusive: 28.2 µM [inhibitor, single point]. `Cn1c(-c2ccc(Br)cc2)cnc1NCc1cccnc1` was tested, and the Potency was inconclusive: 25.1 µM [inhibitor, single point]. In the case of `CC(=O)OC[C@@]1(O)C[C@@]23CC[C@@H]4c5ccoc5CC[C@@]4(C)[C@@H]2CCC1C3`, the “activity change, negative = inhibition” value is reported as inactive: -7.13%. `COc1cc([N+](=O)[O-])cc(/C=N/NC(=O)C(C)Nc2ccccc2C)c1O` (stereo not given) was tested, and the Potency was inconclusive: 28.2 µM [inhibitor, single point]. For `CCCCNc1nc(CC)c2c(c1C#N)CCCC2`, the Potency was inconclusive: 31.6 µM [inhibitor, partial curve]. With `CCOC(=O)CNc1ccc2c(c1)OCO2` the Potency was inconclusive: 39.8 µM [inhibitor, single point]. `CN(CC(=O)N1CCCc2c1c(=O)oc1ccc(O)cc21)Cc1ccccc1` was tested, and the Potency was inconclusive: 28.2 µM [inhibitor, single point]. With `N#CCCn1cc(C(=O)O)c(-c2cc3ccccc3o2)n1` the Potency was inconclusive: 35.5 µM [inhibitor, single point]. With `O=C(Nc1ccc(Cl)cn1)c1cc2ccccc2o1` the Potency was inconclusive: 39.8 µM [inhibitor, single point]. For `CC1(C)CC(=O)c2sc(NC(=O)CN3C(=O)CCC3=O)nc2C1`, the Potency was inconclusive: 28.2 µM [inhibitor, single point]. `CC1=C(C(=O)OC2CCCCC2)C(c2ccco2)C2=C(CC(C)(C)CC2=O)N1` (stereo not given) was tested, and the Potency was inconclusive: 39.8 µM [inhibitor, single point]. For `O=C(N/N=C/c1ccc(-c2cccc(C(F)(F)F)c2)o1)c1ccccc1Br`, the Potency was inconclusive: 39.8 µM [inhibitor, single point]. `O=C1c2ccccc2NC(c2ccc(-c3cccc([N+](=O)[O-])c3)o2)N1O` (stereo not given) was tested, and the Potency was inconclusive: 39.8 µM [inhibitor, single point]. With `Cc1cccc(OCCn2c(NC(=O)c3ccco3)nc3ccccc32)c1` the Potency was inconclusive: 35.5 µM [inhibitor, single point].
